Measurements: the antibiotic and cytotoxicity screens of Wong et al. (2023)
The other results are listed elsewhere or left out.

Tested on: S. aureus RN4220
Test: growth inhibition call (relative growth <= 0.2)
Conditions: 50 µM

Growth inhibition call, inactive:
Cc1ncc(C[n+]2csc(CCO)c2C)c(N)n1.Cl.[Cl-]
C[C@@H]1CN([C@H](C)CO)C(=O)c2cc(NC(=O)CCC(F)(F)F)ccc2O[C@@H](C)CCCCO[C@H]1CN(C)Cc1ccc(Cl)c(Cl)c1
COc1ccc(NC(=O)N(C)C[C@@H]2OCCCC[C@H](C)Oc3ccc(NC(=O)c4ccncc4)cc3C(=O)N([C@@H](C)CO)C[C@@H]2C)cc1
COc1ccc(CN(C)C[C@H]2OCCCC[C@@H](C)Oc3ccc(NC(=O)Nc4ccccc4)cc3C(=O)N([C@@H](C)CO)C[C@@H]2C)cc1
COc1ccc(S(=O)(=O)Nc2ccc3c(c2)C(=O)N([C@@H](C)CO)C[C@H](C)[C@@H](CN(C)C(=O)c2ccccc2)OCCCC[C@H](C)O3)cc1
Cc1ccccc1S(=O)(=O)N1C[C@H](O)COC[C@H]2O[C@H](CC(=O)N3CCC(Cc4ccccc4)CC3)CC[C@@H]21
C[C@@H]1CN([C@H](C)CO)C(=O)c2cc(NC(=O)NC3CCCCC3)ccc2O[C@H]1CN(C)Cc1ccc(Oc2ccccc2)cc1
C[C@H](CO)N1C[C@H](C)[C@H](CN(C)Cc2ccc(-c3ccccc3)cc2)Oc2ccc(NC(=O)Nc3ccc(F)cc3)cc2CC1=O
Cc1noc(C)c1NC(=O)N(C)C[C@@H]1OCCCC[C@@H](C)Oc2ccc(NC(=O)Nc3ccc4c(c3)OCO4)cc2C(=O)N([C@@H](C)CO)C[C@H]1C
COc1ccc(NC(=O)N(C)C[C@@H]2OCCCC[C@@H](C)Oc3ccc(NC(=O)C4CCCCC4)cc3C(=O)N([C@H](C)CO)C[C@H]2C)cc1
CC(C)=CCC/C(C)=C/CC/C(C)=C/CC/C(C)=C/CO
C=C1CCC(O)CC1=CC=C1CCCC2(C)C1CCC2C(C)CCCC(C)C (stereo not drawn)
COc1ccc(CN(C)C[C@H]2Oc3c(NC(=O)CCCCCC(=O)Nc4ccccc4N)cccc3C(=O)N([C@@H](C)CO)C[C@@H]2C)cc1
